From PubChem BioAssay AID602310 (National Center for Advancing Translational Sciences (NCATS), 2012)
In all, about 410,000 compounds went through this assay and about 310 (0.076%) were called active. Inconclusive means that the source gave no clear call. Such entries were picked first, then a sample of the others. Calls come from the whole dose curve; as a rule, active = well fitted curve in the direction sought with a large enough effect; inconclusive = small, poorly fitted or top-dose-only effect; inactive = flat fitted curve, though single readings scatter. Where the call is inconclusive, the potency comes from a doubtful curve fit.

What follows are molecules tested against DNA dC->dU-editing enzyme APOBEC-3G (Homo sapiens) (UniProt Q9HC16) (assay: qHTS for Inhibitors of Vif-A3G Interactions: qHTS). Conditions: HeLa A3G-eYFP + Vif (tagged APOBEC3G with the HIV-1 protein that degrades it), YFP fluorescence, overnight; series mostly up to 46.1 µM.
Procedure, shortened: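 HeLa cells stably expressing Vif and C-terminally eYFP-tagged A3G, seeded overnight at 37 deg C, then exposed to compound by pintool overnight at 37 deg C. Rise in yellow fluorescence (Ex 488/Em 500-530, Acumen) marks blocked Vif-driven A3G degradation.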
Note: nearly all actives have a fitted effect of over 60% in size.
Potency is the fitted concentration of half-maximal effect; tags give direction and shape of the fitted curve.

Sequence of UniProt Q9HC16 (Q9HC16 whole entry, looked up): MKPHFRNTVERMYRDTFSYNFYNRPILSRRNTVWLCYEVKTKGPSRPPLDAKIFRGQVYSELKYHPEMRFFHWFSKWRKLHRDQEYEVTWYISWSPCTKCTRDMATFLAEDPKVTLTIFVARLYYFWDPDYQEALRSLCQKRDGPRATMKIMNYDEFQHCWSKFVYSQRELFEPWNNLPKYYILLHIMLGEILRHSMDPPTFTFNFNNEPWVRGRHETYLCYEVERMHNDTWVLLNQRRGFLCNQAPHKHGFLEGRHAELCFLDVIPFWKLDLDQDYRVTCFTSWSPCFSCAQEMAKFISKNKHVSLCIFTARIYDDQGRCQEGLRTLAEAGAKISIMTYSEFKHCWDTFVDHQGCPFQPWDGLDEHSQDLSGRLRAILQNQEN

SMILES | Potency
Cc1ccc(N(C)S(=O)(=O)c2cc(-c3cnc(C4CC4)o3)ccc2C)cc1 | inactive
N#C/C(=C\c1ccncc1)c1nc2ccccc2c(=O)[nH]1 | inconclusive: 35.5 µM [inhibitor, single point]
Cc1oc(-c2ccc(Cl)cc2)nc1CS(=O)CC(=O)NC1CCCC1 (centres undefined) | inactive
Cc1ccc2c(c1)S/C(=C/c1ccc[n+](C)c1)N2CCO | inconclusive: 35.5 µM [inhibitor, partial curve, poor fit]
O=C(N/N=C/c1ccc2c(c1)OCO2)C1COc2ccccc2O1 (centres undefined) | inconclusive: 10 µM [inhibitor, partial curve]
Cc1ccc2c(c1)C=CC(C#N)N2C(=O)c1ccccc1 (centres undefined) | inconclusive: 2.51 µM [inhibitor, full curve, poor fit]
CCCc1[nH]n(-c2ccc(F)cc2)c(=O)c1C=Nc1cccc(F)c1 | inconclusive: 7.08 µM [inhibitor, partial curve]
COc1ccccc1N1CCN(c2ccnc3cc(Cl)ccc23)CC1 | inconclusive: 1.58 µM [inhibitor, full curve, poor fit]
O=C(Oc1ccc(Cl)c2cccnc12)c1ccco1 | active: 11.2 µM
COc1ccc(/C=C(\C#N)c2nc3ccccc3[nH]2)cc1O | inactive
O=C1C(Cl)=C(NCCc2ccccc2)C(=O)c2ccccc21 | active: 12.6 µM
O=C(NCC1CCCO1)c1ccc([N+](=O)[O-])o1 (centres undefined) | inconclusive: 14.1 µM [inhibitor, partial curve, poor fit]
Cc1cc(N)c2cc(NC(=O)/C=C/c3ccccc3Cl)ccc2n1 | inconclusive: 22.4 µM [inhibitor, single point]
CCN1CCc2nc3sc(C(=O)c4ccccc4)c(N)c3cc2C1 | inconclusive: 11.2 µM [inhibitor, partial curve, poor fit]
Cc1ccc(-c2nc(-c3cc4cccc(OCc5ccc(F)cc5)c4oc3=O)no2)cc1 | inconclusive: 11.2 µM [inhibitor, single point]
CCOC(=O)CN(C(=O)COc1nc(-c2ccccc2)cc(C)c1C#N)c1ccccc1C | inconclusive: 5.62 µM [inhibitor, single point]
O=C(NC(=S)Nc1ccc2c(c1)OCCO2)c1cccc2ccccc12 | inactive
CCC(CO)Oc1cc(NCc2cccc(OC)c2)c2ncn(C(C)C)c2c1 (centres undefined) | inconclusive: 22.4 µM [inhibitor, single point]
O=C(/C=C/c1cn(-c2ccccc2)nc1-c1cccnc1)c1ccco1 | inconclusive: 11.2 µM [inhibitor, partial curve]
Fc1ccc(-c2nn3c(C4COc5ccccc5O4)nnc3s2)cc1 (centres undefined) | inactive
Cc1snc2sc(C(=O)c3ccc(Br)cc3)c(N)c12 | inconclusive: 11.2 µM [inhibitor, partial curve, poor fit]
CCOC(=O)N1CCN(Cc2nc3cc(NC(=O)C(C)C)ccc3n2C(C)C)CC1 | inconclusive: 2.82 µM [inhibitor, full curve, poor fit]
CCC12CCC3c4ccc(O)cc4CCC3C1CC(O)C2O (centres undefined) | inconclusive: 8.91 µM [inhibitor, partial curve]

SMILES | Potency
O=C(Nc1nc2n(n1)C(c1ccc(Cl)cc1)C=C(c1ccccc1)N2)c1ccco1 (centres undefined) | inconclusive: 20 µM [inhibitor, single point]
Brc1ccc(C2=CC(c3cccs3)n3ncnc3N2)cc1 (centres undefined) | inactive
O=C(/C=C/c1ccc(N2CCC(c3ccccc3)=N2)cc1)c1ccccc1 | inconclusive: 22.4 µM [inhibitor, single point]
COc1ccc(N(CC(=O)Nc2cccc(C(C)=O)c2)S(=O)(=O)c2ccccc2)c(OC)c1 | inconclusive: 7.08 µM [inhibitor, partial curve]
COc1cc(NC(=O)COC(=O)CCCC2=NS(=O)(=O)c3ccccc3N2)cc(OC)c1 | inactive
CCOC(=O)c1ccc(N2CCOCC2)c(NC(=O)c2c(-c3ccccc3)noc2C)c1 | inconclusive: 1.78 µM [inhibitor, full curve, poor fit]
CC(C)Oc1ccc(C(=O)NC2CCN(Cc3ccccc3)CC2)cc1 | inactive
Nc1nc2c(ncn2[C@@H]2O[C@H](CNCc3ccc(OCCCN4CCOCC4)cc3)[C@@H](O)[C@H]2O)c(=O)[nH]1 | inconclusive: 28.2 µM [inhibitor, single point]
NNC(=O)c1cc2c(s1)-c1cc(Cl)ccc1SC2 | inactive
O=C(NCCSCc1ccc(Cl)cc1Cl)c1ccc(CN2CCOCC2)cc1 | inactive
COc1cc(/C=N/N=C2/NC(=O)C(Cc3ccc(F)cc3)S2)ccc1O (centres undefined) | inconclusive: 14.1 µM [inhibitor, single point]
CCOC(=O)c1ccc(NC(=O)CCn2c(=O)c3cccn3c3cccnc32)cc1 | inconclusive: 31.6 µM [inhibitor, single point]
Cc1c(C(=O)N2c3ccccc3CC2C)oc2ccccc12 (centres undefined) | inconclusive: 3.98 µM [inhibitor, full curve]
COC(=O)CCNC(=O)NC(CCC(C)C)c1c(-n2cccc2)sc2c1CCN(C)C2 (centres undefined) | inactive
O=c1c2ccccc2oc2ccc(-c3ccoc3)cc12 | inconclusive: 35.5 µM [inhibitor, single point]
Cc1ccc(-c2nn(-c3ccc(F)cc3)c3c2cnc2cc(F)c(F)cc23)cc1 | inactive
CC(=O)c1ccc(Nc2nc3c(S(=O)(=O)c4ccccc4)nnn3c3ccc(Cl)cc23)cc1 | inactive
CN=c1scc(-c2ccco2)n1/N=C/c1ccc(O)c(O)c1 | inconclusive: 17.8 µM [inhibitor, single point]
Cc1ccc(S(=O)(=O)N(CC(=O)N/N=C/c2ccco2)c2cc(Cl)cc(Cl)c2)cc1 | inconclusive: 12.6 µM [inhibitor, single point]
O=C(COC(=O)c1c2c(nc3ccccc13)/C(=C/c1cccc([N+](=O)[O-])c1)CCC2)NC1CCS(=O)(=O)C1 (centres undefined) | inactive
Clc1cccc(Cl)c1/C=C/c1ccn[nH]1 | inconclusive: 2.51 µM [inhibitor, full curve, poor fit]
N#C/C(=C\c1ccc(O)cc1)c1nc2ccccc2o1 | inconclusive: 10 µM [inhibitor, partial curve]
CC(C)N1C/C(=C/c2cccnc2)C(=O)/C(=C/c2cccnc2)C1 | inconclusive: 10 µM [inhibitor, partial curve]

SMILES | Potency
CCN(CC)C(=O)Cn1c(=O)c2ccccc2n2c(=S)sc(-c3cccc(C)c3)c12 | inactive
COc1cc2c(cc1OC)C(c1ccccc1OC(C)C)CC(=O)N2 (centres undefined) | inconclusive: 35.5 µM [inhibitor, single point]
NC(=O)c1cc(Br)cc(C2CCCCC2)c1O | inactive
CC1Cc2ccccc2N1C(=S)NC1CCCC1 (centres undefined) | inactive
Cn1c(SCC(=O)c2cc(Cl)c(Cl)s2)nnc1-c1ccco1 | inactive
CCOC(=O)N1CCc2c(sc3c2c(=O)n(-c2ccc(F)cc2)c(=O)n3CC(=O)c2ccc(Cl)cc2)C1 | inactive
O=C1/C(=C/c2cccnc2)SC(=S)N1Cc1ccco1 | inconclusive: 28.2 µM [inhibitor, single point]
CCNC(=S)N1CCN(C(=O)C(Cc2ccccc2)NC(C)=O)CC1 (centres undefined) | inactive
COc1ccc([C@@H]2Sc3ccccc3NC(=O)[C@@H]2O)cc1 | inconclusive: 35.5 µM [inhibitor, single point]
CC1(C(=O)NCc2ccco2)Cc2c(-c3cccc(C(F)(F)F)c3)ccnc2O1 (centres undefined) | inconclusive: 1.58 µM [inhibitor, full curve, poor fit]
CCOc1ccc(-c2cc(C(=O)NC(C)c3ccccc3)c3ccccc3n2)cc1 (centres undefined) | inconclusive: 15.8 µM [inhibitor, single point]
O=C(N/N=C/C(Cl)=C/c1ccccc1)c1ccc2c(c1)OCO2 | inconclusive: 7.08 µM [inhibitor, partial curve, poor fit]
C#CCN1C(=O)S/C(=C/C=C/c2ccc(N(C)C)cc2)C1=O | inconclusive: 8.91 µM [inhibitor, partial curve]
Cc1ccc(C)c(N2CCN(S(=O)(=O)c3ccc(-c4cnc(C5CC5)o4)cc3)CC2)c1 | inconclusive: 7.94 µM [inhibitor, partial curve]
O=C(/C=C/Sc1ccccc1)c1ccc(Cl)cc1 | inconclusive: 22.4 µM [inhibitor, single point]
Cc1ccc2c(c1)N(C)/C(=C/c1cccc[n+]1C)S2 | inconclusive: 17.8 µM [inhibitor, partial curve, poor fit]
COc1ccc(-c2cn3cccnc3n2)cc1NC(=O)Nc1cc(C)ccc1C | inconclusive: 35.5 µM [inhibitor, single point]
CCc1ccc(NC(=O)Nc2ccccc2OCc2cc(=O)n3ccccc3n2)cc1 | inactive
O=C1CCCN1CCCN=c1c([N+](=O)[O-])nn(-c2ccc(Cl)cc2)n1O | inconclusive: 17.8 µM [inhibitor, single point]
CCN1CSC(=S)N(Cc2ccc(OC)cc2)C1 | inconclusive: 35.5 µM [inhibitor, single point]
COc1cc(OC)c(OC)cc1/C=C/C(=O)c1ccc(NS(=O)(=O)c2ccc(C)cc2)cc1 | inconclusive: 17.8 µM [inhibitor, single point]
CN1/C(=C\C=C(/C#N)C(=O)Nc2ccc(Cl)cc2)C(C)(C)c2ccccc21 | active: 7.08 µM
COc1ccc(/C=C/C(=O)c2cc(F)ccc2OC(=O)c2ccccc2C)cc1OC | inconclusive: 0.562 µM [inhibitor, full curve, poor fit]
